# Laboratory results reported in US20070280957A1, “Change of the Load State of Mhc Molecules” (priority 2004, published 2007).
# Key:
# Assay type in all cases: cell-based
# [1] = biological target: T1, HLA-DR1 (DRB1*0101) on L57.23 cells (Homo sapiens, UniProt P01903+P01911, A100R/D57E/F55L/F60I/F76Y/I96L/L162R/M171V/P40L/Q125E/R42F/V115G/Y59C); experiment: Loading of HLA-DR1 on the cell surface of fibroblast cells with biotinylated peptide, flow cytometry
# T1 construct: expressed in transfected cells; host or cells: L57.23 fibroblast cells
# [2] = biological target: T2, HLA-DR4 (DRB1*0401) on L243.6 cells (Homo sapiens, UniProt P01903+P01911, A100K/A169T/F76Y/I96L/K127E/L162R/M171V/N62H/P40V/Q125Y/R42H/S133A/S149N/S66Y/V115G/V209L/W38E); experiment: Loading of HLA-DR4 on the cell surface of fibroblast cells with biotinylated peptide, flow cytometry
# T2 construct: expressed in transfected cells; host or cells: L243.6 fibroblast cells
# [3] = biological target: T3, HLA-DR1 tetramers (Homo sapiens, UniProt P01903+P01911, A100R/D57E/F55L/F60I/F76Y/I96L/L162R/M171V/P40L/Q125E/R42F/V115G/Y59C); experiment: Loading of MHC class II tetramers (ligand replacement IC106-120 by HA306-318), staining of T-cells, flow cytometry
# T3 construct: purchased Proimmune Ltd
smiles,measurement,setting,value
"OCCC12CC3CC(CC(C3)C1)C2 [I 1, 2-(1-adamantyl)-ethanol]",loading of membrane-located HLA-DR1 complexes compared with pCP,"[1]; 8 μM HA-biot., 0.1, 0.05, 0.025 mM vs pCP 1, 0.5, 0.25 mM (ten times lower concentrations)",almost equally high loading
same,"loading of cells with HA306-318, dose-activity curves compared with pCP","[1]; L57.23 cells, 4 hours, 37° C., active at markedly less than a tenth of the pCP concentration",substantially more active than pCP
same,loading of HLA-DR4 complexes compared with pCP,"[2]; 8 μM HA-biot., a tenth of the pCP concentration",increased loading compared to pCP
same,"loading of cells with HA306-318, dose-activity curves compared with pCP","[2]; L243.6 cells, 4 hours, 37° C., active at markedly less than a tenth of the pCP concentration",substantially more active than pCP
same,"staining of A10 T-cells (negative control, antigen specificity) with catalyst-loaded tetramers",[3]; HLA-DRw52a-restricted TT1272-1284-specific A10 T-cells,not stained
same,signal of PD2 T-cells stained with IC tetramers loaded with HA306-318,[3]; overnight incubation with catalyst and HA306-318,of a similar height to that delivered by the pre-prepared HA tetramers
